{"source": "ChEMBL document CHEMBL1201862", "about": "“PubChem BioAssay data set” (2004)", "note": "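Interpolation was linear, between the two tested concentrations surrounding the appropriate level; five concentrations were tested over 48 hours in 96-well plates. At the GI50, growth is halved.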 Active and inactive are the calls of the source. Rule as the data show it: active = GI50 up to about 1.1 µM and inactive = higher.", "data": [{"test_system": "NCI-H322M", "experiment": "growth of human tumour cells (NCI), 48 h", "values": [{"smiles": "COc1ccc(CN(O)C2C(CO)OC(n3cc(I)c(=O)[nH]c3=O)C2O)cc1", "note": "(stereo unspecified)", "GI50": "inactive: > 100 µM"}, {"smiles": "O=C(O)c1cnc2c(ccc3ncc(C(=O)O)c(O)c32)c1O", "GI50": "inactive: > 100 µM"}, {"smiles": "Oc1c(CN2CCOCC2)ccc2cccnc12", "GI50": "inactive: > 10 µM"}, {"smiles": "Nc1ncnc2c1ncn2C1CC(OC2CCCCO2)C(CO)O1", "note": "(stereo unspecified)", "GI50": "inactive: > 100 µM"}, {"smiles": "NCC(=O)C(O)C(O)C(O)CO", "note": "(stereo unspecified)", "GI50": "inactive: > 100 µM"}, {"smiles": "N#CC(C(=O)CCCC(=O)Nc1ccc(Cl)cc1Cl)c1ccccc1", "note": "(stereo unspecified)", "GI50": "inactive: > 100 µM"}, {"smiles": "CCCCCC/C=C\\CCCCCCCCCC1=CC(=O)C=C(OC)C1=O", "note": "[IRISQUINONE A]", "GI50": "inactive: 6.92 µM"}, {"smiles": "CCOc1ccccc1NC(=O)CCC(=O)OC", "GI50": "inactive: > 100 µM"}, {"smiles": "COCCCNC(=O)C1C(=O)N(CCCOC)C(=O)/C1=N\\N", "note": "(stereo unspecified)", "GI50": "inactive: > 100 µM"}, {"smiles": "CC(/C=C/C=C\\C=C\\C=C(/C)C(=O)NC(C)CO)=C\\C(C)C(O)/C(C)=C/C(C)CCc1ccccc1", "note": "(stereo unspecified)", "GI50": "inactive: 1.54 µM"}, {"smiles": "CCNC(=S)N/N=C/c1cc([N+](=O)[O-])ccc1O", "GI50": "inactive: 51.5 µM"}, {"smiles": "COc1ccc2c3c([nH]c2c1[N+](=O)[O-])C(C)N(C)CC3", "note": "(stereo unspecified)", "GI50": "inactive: > 100 µM"}, {"smiles": "COC(=O)C1CC=C(SC(=O)c2ccccc2)N1C(=O)c1ccccc1", "note": "(stereo unspecified)", "GI50": "inactive: > 100 µM"}, {"smiles": "CCCCCCCCCCCCCCCCCCOCC(COP(=O)([O-])OCC[N+](C)(C)C)OC", "note": "(stereo unspecified) [EDELFOSINE]", "GI50": "inactive: 46.8 µM"}, {"smiles": "CC1(C)OC2COC3(CNO)OC(C)(C)OC3C2O1", "note": "(stereo unspecified)", "GI50": "inactive: > 100 µM"}, {"smiles": "CNc1ccc(C(=O)CC(O)CCC(C)C2OC(=O)CC(O)CC(=O)CC(O)CC(O)CC(O)CC(O)CC3(O)CC(O)C(C(=O)NCCN(C)C)C(CC(OC4OC(C)C(O)C(NC(=O)CN5CCN(C)CC5)C4O)\\C=C/C=C\\C=C/C=C/C=C/C=C\\C=C/C2C)O3)cc1", "note": "(stereo unspecified)", "GI50": "inactive: 5.93 µM"}, {"smiles": "CCC1(O)C(=O)OCc2c1cc1n(c2=O)Cc2cc3c(N)cccc3nc2-1", "note": "(stereo unspecified) [RS-9-Aminocamptothecin]", "GI50": "active: 0.137 µM"}, {"smiles": "O=C(O)C(CCc1ccccn1)c1ccccc1", "note": "(stereo unspecified)", "GI50": "inactive: > 100 µM"}, {"smiles": "CN(C)C(=O)c1ccc([N+](=O)[O-])cc1", "GI50": "inactive: > 100 µM"}, {"smiles": "Cc1oc2nc(N(C)C)nc(NN)c2c1C", "GI50": "inactive: > 100 µM"}, {"smiles": "COc1cc([C@H]2CC(=O)C[C@@H](c3cc(OC)c(OC)c(OC)c3)C23C(=O)c2ccccc2C3=O)cc(OC)c1OC", "GI50": "inactive: > 100 µM"}, {"smiles": "Cn1ccc(=NS(=O)(=O)c2ccccc2)cc1", "GI50": "inactive: > 100 µM"}, {"smiles": "CC(Nc1cc(=O)n(C)c(=O)[nH]1)c1ccccc1", "note": "(stereo unspecified)", "GI50": "inactive: > 100 µM"}, {"smiles": "N#C/C(=C\\c1ccc(O)cc1O)C(N)=O", "GI50": "inactive: 43.4 µM"}, {"smiles": "O=C(NNc1ccc([N+](=O)[O-])cc1)C1OC(CO)C(O)C1O", "note": "(stereo unspecified)", "GI50": "inactive: > 100 µM"}, {"smiles": "FC1OC2OC1C(OCc1ccccc1)C(OCc1ccccc1)C2OCc1ccccc1", "note": "(stereo unspecified)", "GI50": "inactive: > 100 µM"}, {"smiles": "CC(=O)O[C@H]1CC[C@@]2(C)C(=CC[C@@H]3[C@@H]2CC[C@]2(C)c4nc(N)c(C#N)cc4C[C@@H]32)C1", "GI50": "inactive: 18.2 µM"}, {"smiles": "O=c1[nH]c(Nc2nc3ccccc3[nH]2)nc2c1CCC2", "GI50": "inactive: > 100 µM"}, {"smiles": "O=C(CC1C(=O)c2ccccc2C1=C1C(=O)c2ccccc2C1=O)c1ccccc1", "note": "(stereo unspecified)", "GI50": "inactive: > 100 µM"}, {"smiles": "NC(=O)N/N=C1/c2ccccc2-n2nccc21", "GI50": "inactive: > 100 µM"}, {"smiles": "Cc1ccc(F)cc1NC(=O)O/N=C(\\Cl)C(C)C", "GI50": "inactive: 17.9 µM"}, {"smiles": "COC(=O)n1c(C[P+](c2ccccc2)(c2ccccc2)c2ccccc2)cc2ccccc21", "GI50": "inactive: 4 µM"}, {"smiles": "COc1ccc2nc(-c3ccc(O)cc3)sc2c1", "GI50": "inactive: > 100 µM"}, {"smiles": "Clc1ccc(-n2nnc(C3=NCCCN3)c2-c2ccccc2)cc1", "GI50": "inactive: > 100 µM"}, {"smiles": "COc1ccc(/C=C2\\CCNC2=O)cc1", "GI50": "inactive: > 100 µM"}, {"smiles": "Nc1nc(Cl)c(C=O)c(NCC2(CO)CC(CCc3ccccc3)C2)n1", "note": "(stereo unspecified)", "GI50": "inactive: 13.5 µM"}, {"smiles": "O=C(c1cc(Cl)ccc1Cl)N1CCN(C(=O)c2cc(Cl)ccc2Cl)CC1", "GI50": "inactive: > 100 µM"}, {"smiles": "CNC1NC(=O)c2ccccc2N1Cc1ccc(F)cc1", "note": "(stereo unspecified)", "GI50": "inactive: > 100 µM"}, {"smiles": "Cc1cc(C)c2c(n1)S(=O)(=O)N(CCCN1CCN(c3cccc(Cl)c3)CC1)C(C(=O)c1ccc(Br)cc1)=C2O", "GI50": "inactive: 18.1 µM"}, {"smiles": "CCC1([N+](=O)[O-])CC2C=CC1C2", "note": "(stereo unspecified)", "GI50": "inactive: > 100 µM"}, {"smiles": "N#CCCN(CCC#N)c1ccc(C(=N/c2ccc(F)cc2)/N=N/c2ccccc2)cc1", "GI50": "inactive: > 100 µM"}, {"smiles": "O=c1nc(N2CCNCC2)oc2cc(Cl)oc(=O)c12", "GI50": "inactive: 16.1 µM"}, {"smiles": "CCOc1ccccc1NC(=O)C(C#N)C1=C(Cl)C(=O)c2ccccc2C1=O", "note": "(stereo unspecified)", "GI50": "inactive: 1.64 µM"}, {"smiles": "C=CCNC(=S)N1c2ccccc2NC(=O)CC1C", "note": "(stereo unspecified)", "GI50": "inactive: > 100 µM"}, {"smiles": "CCOC(C)O[C@H]1C(=O)OCC1(C)C", "note": "(stereo partly specified)", "GI50": "inactive: > 100 µM"}, {"smiles": "C/C(=C\\c1csc(C)n1)[C@@H]1C[C@@H]2O[C@]2(C)CCC[C@H](C)[C@H](O)[C@@H](C)C(=O)C(C)(C)[C@@H](O)CC(=O)O1", "note": "[PATUPILONE]", "GI50": "active: < 0.0001 µM"}]}]}
